Reference: PubChem BioAssay AID504466 (National Center for Advancing Translational Sciences (NCATS), 2011)
Out of some 330,000 compounds screened, about 4,200 (1.3%) were called active. This list was built around the results that the source calls inconclusive (neither active nor inactive); the mix of calls is not that of the screen. The call rests on the fitted dose curve; in most records, active means well fitted activation curve with a large enough effect; inconclusive means small, poorly fitted or top-dose-only effect; inactive means no such curve, though single readings can be large or run the other way. A potency beside an inconclusive call is a rough fit, not a confirmed value.

test: qHTS screen for small molecules that induce genotoxicity in human embryonic kidney (HEK293T) cells expressing luciferase-tagged ELG1; details: HEK293T ELG1-luciferase reporter, luminescence, 16 h; series mostly up to 46 µM; further: nearly all actives have a fitted effect of over 60% in size
In short: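 Screening used a luciferase reporter fused to human ELG1 in HEK293T cells. Luminescence was read on a CCD plate imager after 16 hr exposure and 30 min ONE-Glo incubation.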
Potency means the concentration at half of the fitted maximal effect; tags describe the fitted curve by direction and shape.

SMILES	Potency
O=C(/C=C/c1ccco1)N1CCc2ccccc21	active: 1.03 µM
Cc1ccc(C(=O)OCC(=O)N2CCCC2)cc1	inconclusive: 25.9 µM [activator, single point]
Nc1c(C(=O)NC2CCCC2)sc2nc(-c3cccs3)ccc12	inconclusive: 23.1 µM [activator, single point]
COc1ccc(S(=O)(=O)N2CC(C)N(C(=O)N3CCOCC3)C2)cc1 (configuration not stated)	inactive
O=C(COc1ccc(Cl)cc1)Nc1ccc(NC(=O)c2ccco2)cc1	inconclusive: 20.6 µM [activator, partial curve, poor fit]
CCCCNC(=O)Nc1ccc(Br)cn1	inconclusive: 14.6 µM [activator, partial curve, poor fit]
c1ccc([C@H]2CN3C(=N2)Sc2ccccc23)cc1	inconclusive: 1.83 µM [activator, partial curve]
CCc1ccc(/C=N/NC(=O)c2c[nH]c3ccccc23)s1	inconclusive: 20.6 µM [activator, partial curve, poor fit]
CC1(C)CC(=O)c2cc(OCC(=O)N3CCCCCC3)ccc2O1	inconclusive: 23.1 µM [activator, partial curve, poor fit]
CC1=NN(C(N)=S)C(=O)C1N=Nc1ccc([N+](=O)[O-])cc1 (configuration not stated)	inconclusive: 20.6 µM [activator, partial curve, poor fit]
CC(OC(=O)c1ccc2c(c1)OCCO2)C(=O)NC1CCCCC1C (configuration not stated)	inactive
COc1ccc(-c2ccc(SCC(=O)NCc3ccco3)nn2)cc1	inconclusive: 15.8 µM [activator, single point]
Cc1ncc([N+](=O)[O-])n1CC(=O)Nc1ccc(F)cc1F	inactive
Cc1ccc(C(=O)CSc2nsc(C)c2C#N)cc1	inconclusive: 18.4 µM [activator, partial curve, poor fit]
O=C(O)C1CC=CCC1C(=O)Nc1ccc2c(c1)OCCO2 (configuration not stated)	inconclusive: 29.1 µM [activator, single point]
Cc1cccc(OCC(=O)Nc2ccccc2F)c1	inconclusive: 9.2 µM [activator, partial curve]
Cc1ccc(-c2cn3cc([N+](=O)[O-])ccc3n2)cc1	inconclusive: 0.731 µM [activator, partial curve]
COCCN(CC(=O)NC1CCCCC1)C(=O)/C=C/C(=O)c1ccc(OC)cc1O	inactive
COCCN(C(=O)c1cc(-c2ccncc2)nc2ccccc12)c1c(N)n(CC(C)C)c(=O)[nH]c1=O	inactive
O=C(NN=Cc1ccccc1OC(F)F)c1cccc(S(=O)(=O)N2CCCC2)c1	inactive
Cc1c(NC(=O)COC(=O)CSc2ccc(C(N)=O)cc2[N+](=O)[O-])c(=O)n(-c2ccccc2)n1C	inactive
C(=N\Nc1nc2ccccc2s1)/c1ccccn1	inconclusive: 0.058 µM [activator, full curve, poor fit]
C/C(=N/NC(=O)c1cccs1)c1cccs1	inconclusive: 16.4 µM [activator, partial curve]
COc1ccc(C(=O)NCCc2nnc3ccc(SCC(=O)Nc4ccccc4)nn23)cc1	inconclusive: 0.82 µM [activator, single point]

SMILES	Potency
CCN(CC)S(=O)(=O)c1ccc(NC(=O)CCNC(=O)c2ccccc2)cc1	inactive
CS(=O)(=O)N1CCc2cc(C(=O)OCC(=O)c3ccccc3)ccc21	active: 12.6 µM
O=C(NCc1ccco1)c1cccc(NS(=O)(=O)c2ccccc2F)c1	inactive
COc1cc(/C=N/N(c2ccccc2)c2ccccc2)ccc1O	inactive
CCc1nnc(SCC(=O)Nc2ccc3ccccc3c2)n1N	inactive
O=C(N/N=C/c1ccc(N2CCCCC2)o1)c1ccccc1	inconclusive: 23.1 µM [activator, single point]
COc1cc(C#Cc2c(-c3cncn3C)n(C)c3ccc(-c4ccc(OC)c(OC)c4)cc23)cc(OC)c1	inactive
O=C(Nc1ccc2c(c1)OCCO2)c1ccncc1	inconclusive: 13 µM [activator, partial curve, poor fit]
Cc1cccc(NC(=O)CN2C(=O)S/C(=C\c3ccccn3)C2=O)c1	inconclusive: 29.1 µM [activator, single point]
CCCC(=O)N1CCc2cc(OC)c(OC)cc2C1COc1ccccc1OC (configuration not stated)	inactive
CCCn1c(=O)c2ccccc2n2c(SCc3nc4ccccc4s3)nnc12	inconclusive: 5.17 µM [activator, partial curve, poor fit]
O=C(NCc1ccccn1)C(=O)Nc1ccccc1	inconclusive: 13 µM [activator, partial curve]
COc1cccc(N2CC(NC(=O)c3ccc4ccccc4c3)CC2=O)c1 (configuration not stated)	inconclusive: 29.1 µM [activator, partial curve, poor fit]
C#CCN1C(=O)S/C(=C\c2ccc(-c3ccc(Cl)c(C(=O)O)c3)o2)C1=O	active: 16.4 µM
COc1ccccc1OCC(=O)OC/C(O)=C(\C#N)c1nc2ccccc2[nH]1	inconclusive: 29.1 µM [activator, partial curve, poor fit]
CC(C)c1ccc(NC(=O)C2CCC(CNC(=O)[C@@H]3Cc4ccccc4CN3)CC2)cc1 (some centres not stated)	inactive
NC(=O)c1ccsc1NC(=O)COC(=O)c1cc(=O)[nH]c2ccccc12	inconclusive: 3.26 µM [activator, partial curve, poor fit]
FC(F)(F)c1cccc(-c2ccc(-c3csnn3)o2)c1	inactive
Nc1ncc(-c2cc3ccccc3oc2=O)s1	active: 2.59 µM
Cc1ccc(-c2cn(S(=O)(=O)c3cccc([N+](=O)[O-])c3)nc2N)cc1	inactive
COc1ccccc1N=C1NC(=O)/C(=C/c2ccc(N(C)C)cc2)S1	inconclusive: 20.6 µM [activator, single point]
c1ccc(-c2cnc(CSc3nnc4ccccn34)o2)cc1	active: 4.11 µM
CC(C)C(=O)Nc1cccc(-c2nc3ccccc3o2)c1	inconclusive: 32.6 µM [activator, partial curve, poor fit]
O=C(NCc1cnc2ccccn12)C1CCC(=O)N(Cc2ccccc2F)C1 (configuration not stated)	inactive

SMILES	Potency
CCOc1ccc(N=NC2C(=O)N(C(N)=S)N=C2C)cc1 (configuration not stated)	active: 18.3 µM
Cc1cccc(NC(=O)/C(C#N)=C/c2cn(CC(=O)NCc3ccco3)c3ccccc23)c1	inconclusive: 13 µM [activator, partial curve, poor fit]
O=C(CSc1nc(-c2ccco2)cc(C(F)(F)F)n1)NCCCN1CCOCC1	inactive
NC(=O)C1CC(=O)N(c2ccc(OCc3ccc(F)cc3)cc2)C1 (configuration not stated)	active: 18.3 µM
O=C(c1ccc(-c2nc3ccccc3s2)s1)N1CCOCC1	inconclusive: 0.103 µM [activator, full curve, poor fit]
COC(=O)CCS(=O)(=O)c1nc(-c2ccccc2)cc(C(F)(F)F)n1	inactive
CSc1n[nH]c(-c2ccc(C(F)(F)F)cc2)n1	inconclusive: 18.3 µM [activator, partial curve, poor fit]
C/C(=N\NC(=O)c1cccc2ccccc12)c1ccccn1	inconclusive: 29.1 µM [activator, single point]
COc1ccc(/C=N/Nc2nncc3ccccc23)cc1	active: 0.259 µM
O=C(Nc1ccc(N2CCCC2)c(Cl)c1)c1ccc(Br)o1	inconclusive: 2.06 µM [activator, partial curve]
N#C/C(=C/c1cccs1)c1ccccn1	inconclusive: 16.4 µM [activator, partial curve]
CC(=O)c1ccc(N/C=C/C(=O)c2ccc(Br)cc2)cc1	active: 6.51 µM
Cc1nc(-c2ccc([N+](=O)[O-])cc2)nc2[nH]ccc(=O)c12	inconclusive: 2.91 µM [activator, full curve]
Nc1[nH]c(N=NC(=O)c2ccccc2)c2ccccc12	inconclusive: 16.4 µM [activator, partial curve]
Cc1ccccc1-n1c(SCc2c(C)noc2C)nnc1-c1c[nH]c2ccccc12	inconclusive: 23.1 µM [activator, single point]
CCCn1c(C2CC(=O)N(c3cc(OC)ccc3OC)C2)nc2ccccc21 (configuration not stated)	inactive
O=C(O)c1ccc(N/N=C/c2ccc3c(c2)OCO3)cc1	inconclusive: 0.0231 µM [activator, full curve, poor fit]
COc1ccc(N=C2SCC(=O)N2Cc2ccccc2)cc1	inactive
Cc1c(/C(O)=C2\C(=O)C(=O)N(CCN(C)C)C2c2ccccc2)cnn1-c1ccccc1 (configuration not stated)	inconclusive: 20.6 µM [activator, single point]
Cc1ccc(C(=O)N/N=C\c2sccc2C)cn1	inconclusive: 20.6 µM [activator, partial curve, poor fit]
CC1(c2ccc(NC(=O)c3ccccc3F)cc2)CC1(Cl)Cl (configuration not stated)	inconclusive: 5.17 µM [activator, partial curve]
CCOC(=O)/C=c1\s/c(=C\c2ccc(C#N)cc2)c(=O)n1CC(=O)Nc1cccc(C)c1C	inconclusive: 7.3 µM [activator, partial curve]
COc1ccc(-c2ccc3c(c2)S(=O)(=O)c2cccc(C(=O)NCc4ccccc4Cl)c2C3=O)cc1OC	inconclusive: 16.4 µM [activator, partial curve, poor fit]
Nc1cc(N)nc(SCC(=O)Nc2ccc(Br)cc2Cl)n1	inconclusive: 23.1 µM [activator, partial curve, poor fit]
